In all, about 81,000 sequences were measured (“one-hybrid fitness for binding parS DNA”: median about -0.17, highest 2% from about 0.51 on). Some of the results follow.
B1: Caulobacter ParB omega fusion; a variant is named by its letters at X, in order, B8GW30 (parent)
chain: MESVVVGEPGMSEGRRGLGRGLSALLGEVDAAPAQAPGEQLGGSREAPIEILQRNPDQPRRTFREEDLEDLSNSIREKGVLQPILVRPSPDTAGEYQIVAGERAWRAAQRAGLKTVPIMVRELDDLAVLEIGIIENVQRADLNVLEEALSYKVLMEKFERTQENIAQTIGKSXSHVANXMRLLXLPDEVQSYLVSGELTAXHARAIAAAADPVALAKQIIEGGLSVRETEALARKAPNLSAGKSKGGRPPRVKDTDTQALESDLSSVLGLDVSIDHRGSTGTLTITYATLEQLDDLCNRLTRGI

Variants of: B1
Assay: one-hybrid fitness for binding parS DNA (scaled: cognate 1, non-cognate 0); higher = stronger binding
Conditions: with parS DNA site
How it was run: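 Values were rescaled so that cognate is 1 and non-cognate is 0. Each is a fitness, the log change in a variant's read ratio to wild type from Illumina reads of plasmids before and after selection, with three replicate libraries pooled and variants under 10 reads dropped. Selection of the Caulobacter ParB libraries, four specificity codons randomised, used E. coli USO with a HIS3 reporter, site 19 bp from the promoter, on M9-minus-histidine with 0.1 mM IPTG and 5 mM 3-AT for 48 hours at 37°C.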

one-hybrid fitness for binding parS DNA, 0.88:
RCPS

one-hybrid fitness for binding parS DNA, 0.223:
FWYG

one-hybrid fitness for binding parS DNA, 0.847:
RHVG

one-hybrid fitness for binding parS DNA, ≤ 0.2:
VNMT
YRHT
TIAV
AKGC
GNYL
LGSC
VAVI
AWRL
VSLY
TACH
EMCS
ASLK
FDAT
SDQP
GQQS
KGDC
RPHW
PWPE
LASQ
FVLA
KQQA
GSTM
VALY
LRRC
TCLT
SVLT
SLPK
VDAQ
CALM
VRRE
TGQS
RDHA
ADTG
DIIR
ILNG
TYMN
TVPY
HDRV
VRDG
QGLV
TSCV
LRYT
LICS
LNLL
ASMA
LQCC
GPKD
AQTV
RYQH
QAGS
HESV
PETH
RAKV
RQEP
MEPN
IAAP
LLPN
LGNA
PCQL
HTAN
LRQL
MDKT
LLPR
PKYM
SLPA
VDYG
PVKG
SVQL
APCN
HGDS
PRAT
ILPC
SMRR
QMSY
ERYT
VAIL
KYAM
NTVR
DWAR
MEPL
TYLG
IRTK
YVNE
PSEP
LMVS
LSQK
MKVT
NGPN
TALD
MWHG
DHSP
YRCW
HSSD
PPKD

one-hybrid fitness for binding parS DNA, 0.764:
RMKT

— a collection of fitness landscapes (doi:10.1016/j.celrep.2020.107928)
